Measured values as given in the supplement of paper PMC11417369.
± gives the standard deviation of the averaged measurements. This is one part of the list.

tested on: PfAP2-LT AP2 domain (GST-tagged); experiment: gcPBM binding intensity (ln(normalized median fluorescence intensity)); higher = stronger DNA binding
Procedure, shortened: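 Binding intensity is defined as the maximum Masliner-normalised natural-log median intensity across replicate spots for either probe orientation. It was measured on an Agilent 4 × 180k array of primer-extended double-stranded 36-bp intergenic genomic probes and negative controls, to which GST-tagged P. falciparum DNA-binding domains made in E. coli were applied for 1 h in 1× PBS with 1% milk, 0.2 mg/ml BSA, 0.5% salmon testes DNA and 0.03% Triton X-100. Detection was by Alexa488 anti-GST antibody and scanning at 488 nm.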

Sequence | gcPBM binding intensity (ln)
TATTACTTATAAATTACACACAAATGATTGAACATT [CACACA_site2259] | 8.86 ± 0.33
TTAATTACATGTAATTGTACTTAATTATAAGACATT [XGTACX_site464] | 8.54 ± 0.37
TTTTACCTAAATATCACACATATTTAAATATATATA [CACACA_site5597] | 8.56 ± 0.47
TTAAAATAAAGAAAATGTACATAAATAAAAATAAAG [XGTACX_site2280] | 8.85 ± 0.5
TTGTAATAAAGAATTAAAAAAAAATATATACAGGTA [GTGCAC_negctrl_site150] | 8.56 ± 0.54
CATATATATATATATTGTACACATTTTTTATAAAAA [XGTACX_site2526] | 8.61 ± 0.37
TATTTGCAATATAACACACACAAAAAAAGACTCGGA [CACACA_site6891] | 9.31 ± 0.32
TATATGTAATATATATGTACGTATAATATAATATTG [XGTACX_site8620] | 8.71 ± 0.32
AATTATACATTATATTGTACATATGAATAATTAAAA [XGTACX_site6829] | 8.58 ± 0.44
ATACAAATAAAAAAAAAAATTATAAAATTATAAAAT [CACACA_negctrl_site914] | 8.51 ± 0.54
TATATATAAAGCAGTACACACATTTATTTTAGATAC [CACACA_site3387] | 8.95 ± 0.4
AGTGATAATTTAAAAAGTACAAATGAAATTTAGCTA [XGTACX_site3375] | 8.64 ± 0.41
AGAGAGAAAGCTATAACATGCAAAAATTTTTAGAAC [TGCATGCA_site420] | 9 ± 0.47
TTTGTAACTTCTTTCACACATATATATATATATATA [CACACA_site5603] | 9.54 ± 0.16
GTGTGCAAAAATTGTTGTACATTATATATAAAAAAA [XGTACX_site3246] | 9.17 ± 0.31
TTTCACATATATATGGTGCATATTTTATGTGTAAAT [GTGCAC_site9937] | 8.7 ± 0.33
CTATTATCGGTTCCTACACACAAATATAGATGTCTA [CACACA_site7651] | 9 ± 0.4
TATATAATACAAAAGGGTACATTAACATATTATATA [XGTACX_site3196] | 8.8 ± 0.4
AACAACTATTAATTTACACACATGTATATATTTTAC [CACACA_site3116] | 9.28 ± 0.4
AATAGCTAGCTGTGCACACAAACATATTTTCCAAAT [CACACA_site880] | 9.35 ± 0.32
ATATATATATAATTTTGTACATAATAGCAATTCTAA [XGTACX_site653] | 8.65 ± 0.33
GTTTTAAACAAAAATTGTACAATATAATCTTCCTAT [XGTACX_site2851] | 8.55 ± 0.37
GGATGGAGTAGTTAAGCATAATAAATAAAATTATGT [CACACA_negctrl_site578] | 8.78 ± 0.69

Sequence | gcPBM binding intensity (ln)
CAAAACCTTTTATGTACACACATATACATCCCACTT [CACACA_site5716] | 9.16 ± 0.53
AATATCATCCTTTTTTTTTATAAAATTTAAAATATA [CACACA_negctrl_site844] | 8.32 ± 0.45
ACCTCACAAATGAATACACACAAACATATATATTTA [CACACA_site4976] | 9.11 ± 0.33
TATTTTATTATACCAAGTACAAAATTTAAATATGAA [XGTACX_site5478] | 8.36 ± 0.43
ATTTTATGTTGAAAGTGTACGTATTAATATGTAGAA [XGTACX_site245] | 8.7 ± 0.36
TATAAGAGAATATATACACACAAAAATAAATACAGT [CACACA_site5000] | 9.47 ± 0.45
TCATTTCACAAACACACACACACAATATATTTCCTT [CACACA_site3905] | 9.77 ± 0.29
CCACAAGCAGCGGAAACATGCATATGTTGAAATAAT [TGCATGCA_site610] | 8.96 ± 0.42
AACAAAAAAAAAAAATGTACATATATATAATATATT [XGTACX_site3829] | 8.67 ± 0.52
GTTAAGAATATGTGTACACATATACATAAATACATA [CACACA_site4254] | 9.16 ± 0.42
TATATATATATATATTGTACCCTTTTCAAACTTCTC [XGTACX_site2812] | 9.39 ± 0.16
TAATAATATTATTAATGTACAAATATATATACATAT [XGTACX_site7348] | 8.65 ± 0.36
TTTTTCTTTTTCTTTTTTTCTTTTTTTTTTTTTTTC [GTGCAC_negctrl_site727] | 8.29 ± 0.66
CAGACGCACGTATTTGCACACATTGCCACGTAATTA [CACACA_site3349] | 9.28 ± 0.37
AACCATTCAACTGATGCATGCATTTAACATATAAAT [TGCATGCA_site961] | 8.91 ± 0.38
GGATTGATAAGTGGTACACACATATATATTATATAT [CACACA_site2866] | 9.12 ± 0.49
AAATATAAAAATAGCACACATATATACCTATATATA [CACACA_site4204] | 8.99 ± 0.38
GCATTGGGAATATATAGTACATATATATATATATAA [XGTACX_site2967] | 9.28 ± 0.35
TTAAAAAAAATTTCAAGTACAAAGTAATATATATAT [XGTACX_site5718] | 8.6 ± 0.45
AAAAAAATTGGGAAAAGTACTTGCAGCTAGCTAAAA [XGTACX_site5178] | 8.66 ± 0.36
AAACAAATATAATATTGTACATATATATATATATAT [XGTACX_site3105] | 9.44 ± 0.49
AATGCTATCATTAATGCACACATTTAAAATTAATAT [CACACA_site3548] | 8.84 ± 0.38
TTTAAAACCTTACATACACACAAATATATATATATA [CACACA_site677] | 9.295 ± 0.021

Sequence | gcPBM binding intensity (ln)
ATAATAAAAAATACAAGTACACATATTATATATATA [XGTACX_site5355] | 8.9 ± 0.43
CAAACAATTAAACAAACACACATATACAAGTATTTA [CACACA_site5177] | 8.98 ± 0.4
TTTAAGTTTTTACTTTGTACGTATTATAATAAAATC [XGTACX_site5683] | 8.54 ± 0.52
TGTTCTTTTTATACTACACACTGATAAAAAAACAAA [CACACA_site3001] | 8.46 ± 0.35
TATATTTACTTATGAAGTACATATATATATATATAT [XGTACX_site5069] | 9.19 ± 0.3
GCTTGAATAATCAATAGTACACACATATAAATATAT [XGTACX_site5964] | 9.09 ± 0.45
TTTATTTTCATATGAACACACATATTTATATTATAA [CACACA_site7165] | 9.02 ± 0.67
ATACATACATATATATGTACTTATATTTTACACATT [XGTACX_site1688] | 9.22 ± 0.3
TAATAAAAGAAAAAAAGTACAGACATATTGAATTTT [XGTACX_site5044] | 8.76 ± 0.37
TACAATCTAAGGAGCACACAAAAATGGATAAATATA [CACACA_site933] | 8.98 ± 0.49
TTTTTTTTTTTTTTTTGTACTCATACATACTATCAT [XGTACX_site3650] | 8.74 ± 0.46
CAGGCACTAATAAACACACACATATAAATATAAATA [CACACA_site6320] | 9.38 ± 0.59
AATTTCTACTATTGTATGCACTTTCATACATACATA [GTGCAC_site9924] | 9.04 ± 0.41
AGGTGTGAGACCACGTTCACAAAATAAAATACATAA [CACACA_negctrl_site326] | 8.98 ± 0.73
AACACAAGAACAGAACGTACACACACATATATATAT [XGTACX_site7347] | 9.84 ± 0.13
AAATAAATTAAAATAAATTAAATTAAATTAGCATTA [GTGCAC_negctrl_site531] | 8.13 ± 0.58
TGTATGTTATGTATATGTACATATCTTTGTATTTAT [XGTACX_site6920] | 9.1 ± 0.53
TATTTATAAGTTTACGCATGCATATAATTATTAATA [TGCATGCA_site311] | 8.62 ± 0.29
TTTTTTTTTTTTTTTGTGCACAATTATTTCAATTTT [GTGCAC_site9884] | 8.91 ± 0.49
ACCTTATTTATTATTGCATGTGACCATCAGATGGTA [TGCATGCA_site288] | 9.19 ± 0.29
TTTATTTTTTACCAAGTGCAATATATTATAATAATA | 8.32 ± 0.38
TAATATTTATAATAGTGTACACAATTATAAACTGAA [XGTACX_site8426] | 8.7 ± 0.37
AAAGAAAAAAAATAATGTACTTATGTATTTCAGAAA [XGTACX_site3570] | 8.41 ± 0.59

Sequence | gcPBM binding intensity (ln)
TTCATACATAGAAAATGTACATATATATATATATAT [XGTACX_site1895] | 9.72 ± 0.085
ATATATATGCATAATACACACATCATATAATTAACC [CACACA_site1643] | 9.27 ± 0.37
TACAAAATATTTTACACACACATATAAATACAGATA [CACACA_site5447] | 9.38 ± 0.28
AAAAAAAAAAACAATACATGCATAATATTAATAAAA [TGCATGCA_site913] | 8.69 ± 0.49
AAGATATGTACTAATACACACACATATATATATATA [CACACA_site8249] | 9.86 ± 0.14
TATCCATGCATTTACACACACACAAAAAAAAATTCT [CACACA_site4100] | 9.6 ± 0.4
ATTTTTTTTTTTAATACACACAATTTTGATGAAGCA [CACACA_site3157] | 8.7 ± 0.38
TTTCATAAGAGAAAGACACACAAATATATATTTATT [CACACA_site827] | 8.7 ± 0.47
ACATTACCATATAAAACACACAAACATACATACATA [CACACA_site7709] | 9.23 ± 0.3
TATAATATTTGGTGCACACAAATTAACAACTGTTTA [CACACA_site3742] | 8.88 ± 0.29
AAGACACAAAAACACACACACATACATACATACATA [CACACA_site454] | 9.99 ± 0.31
TATGTTGATGATGATAGTACATATGAGTTCAAAAAA [XGTACX_site7712] | 8.72 ± 0.55
AATAAAAAAGGAAACAAATTAATATATATATATATA [CACACA_negctrl_site467] | 9.25 ± 0.26
TATATTTGGAAAACATGTACATATAACAATATGTAA [XGTACX_site324] | 8.71 ± 0.34
CGTACATAATTTTAATCACACACAAACAAACACATA [CACACA_site7947] | 9.42 ± 0.34
AAAAAAAGAAATAATAAAAAATATATATATATATAT [GTGCAC_negctrl_site702] | 9.31 ± 0.53
TGTTTTGTTGTGTATTGTACTAATATAAATATATAA [XGTACX_site1852] | 8.68 ± 0.31
TTTTATGATTGACACACACACAAAAAAAAAAAAAAA [CACACA_site7860] | 8.89 ± 0.42
TAAAAAAACGCACTCGTACACACATATTTTCTTTCT [CACACA_site3090] | 9.02 ± 0.41
TTTGAAATATATTTAGTGCATATATATTGATTATAA [GTGCAC_site9604] | 8.39 ± 0.38
